Laboratory results taken from ChEMBL document CHEMBL1201862, “PubChem BioAssay data set” (2004).

These molecules were tested on NCI-H322M (assay: growth of human tumour cells (NCI), 48 h).

For `CN(C)c1ccc(C=C2N=C(c3ccccc3)N(c3cc(C(=O)c4ccccc4)ccc3N3C(=O)/C(=C/c4ccc(N(C)C)cc4)N=C3c3ccccc3)C2=O)cc1`, which GI50 is on record?
The GI50 was inactive: > 100 µM.

Which GI50 does the source give for `Cc1nc(O)nc2nc3ccc(Cl)cc3c(NCCNCCO)c12` here?
The GI50 was inactive: 9.14 µM.

`CC(=O)OC12C=CC(=O)N1c1ccccc1C(=O)O2` (configuration not stated) was tested. Which GI50 did it give?
The GI50 was inactive: > 100 µM.

With `C[N+]1(CCNP(=S)(NCC[N+]2(C)Cc3c(ccc4c3OCO4)C3C2c2cc4c(cc2C[C@@H]3O)OCO4)NCC[N+]2(C)Cc3c(ccc4c3OCO4)C3C2c2cc4c(cc2C[C@@H]3O)OCO4)Cc2c(ccc3c2OCO3)C2C1c1cc3c(cc1C[C@H]2O)OCO3` (some centres not stated) as the molecule, how does the GI50 read?
Its GI50 is active: < 0.00191 µM.

For `CSC1C(=O)Nc2ccc3ccccc3c21` (configuration not stated), which GI50 is on record?
Its GI50 is inactive: > 100 µM.

With `O=C1NNC2(C(=O)N1)c1ccccc1-c1ccccc12` as the molecule, how does the GI50 read?
The GI50 was inactive: > 10 µM.

Which GI50 does the source give for `Cc1c2ccccc2c(/C=N/NC(=O)CSCC(=O)N/N=C/c2c3ccccc3c(C)c3ccccc23)c2ccccc12` here?
Its GI50 is inactive: 38.5 µM.

Which GI50 does the source give for `N#Cc1c(=O)c2ccccc2n2c1[nH]c1ccccc12` here?
The GI50 was inactive: 25 µM.

How did the GI50 turn out when `COC(=O)C1=C(C)NC2(O)C=CC(=O)C3C(=O)N(c4ccccc4)C(=O)C132` (configuration not stated) was run?
Its GI50 is inactive: > 100 µM.

For `NC(=O)c1csc(C2(O)COC(CO)C2O)n1` (configuration not stated), which GI50 is on record?
Its GI50 is inactive: > 100 µM.

With `C=CC[C@H]1C[C@@]2(C)OC[C@H](C(C)C)N2C1=O` as the molecule, how does the GI50 read?
The GI50 was inactive: > 100 µM.

`N=C1C=CC(=C(c2ccc(N)cc2)c2ccc(N)cc2)C=C1` was tested. Which GI50 did it give?
Its GI50 is inactive: 3.57 µM.

Which GI50 does the source give for `C[C@]12CC[C@H]3[C@@H](CC=C4C[C@@H](N5CCCC5)CC[C@@]43C)[C@@H]1C[C@H](N1CCCCC1)[C@@H]2O` here?
The GI50 was inactive: 76.6 µM.

With `Cn1c2ccccc2c(=O)c2c([N+](=O)[O-])ccc(NCCN)c21` as the molecule, how does the GI50 read?
Its GI50 is inactive: 10.5 µM.

How did the GI50 turn out when `CC(C)=CC(=O)c1c(C(=O)O)nc2ccccc2[n+]1[O-]` was run?
Its GI50 is inactive: > 100 µM.

With `Cc1cc(C)c(C(=O)C(C)C(c2ccccc2)c2ccc(Cl)cc2)c(C)c1` (configuration not stated) as the molecule, how does the GI50 read?
The GI50 was inactive: > 100 µM.

`CS(C)(=O)=Nn1c(=O)n2n(c1=O)C1c3ccccc3C2c2ccccc21` was tested. Which GI50 did it give?
The GI50 was inactive: > 100 µM.

For `COc1cc(C(=O)Oc2c(C#N)sc3c2c(=O)n(-c2ccccc2)c(=S)n3-c2ccccc2)cc(OC)c1OC`, which GI50 is on record?
Its GI50 is inactive: 20.8 µM.

For `CC[C@H](C)[C@@H]1OC(=O)CCNC(=O)[C@@H](C)NC(=O)C(C)(C)C(=O)[C@H](C)NC(=O)[C@H](Cc2ccc(OC)cc2)N(C)C(=O)[C@H](C(C)C)N(C)C(=O)CNC(=O)[C@H](CC(C)C)N(C)C(=O)CNC1=O` (cyclo(G[NMeL]G[NMeV][NMeY](Me)[X4][dA][βAla][Hmpa(2S,3S)])), which GI50 is on record?
Its GI50 is inactive: 6.22 µM.

`COC(=O)C1=C(O)C(C(=O)OC)[C@@]2(O)[C@@H](C(=O)OC)CC[C@@H]1[C@@H]2C(=O)OC` (some centres not stated) was tested. Which GI50 did it give?
The GI50 was inactive: 32.9 µM.

Which GI50 does the source give for `N#CCc1nc(C#N)c(N)o1` here?
The GI50 was inactive: > 100 µM.

Which GI50 does the source give for `C=C1c2nc3ccccc3n2C=C(c2ccc(OC)cc2)N1c1ccccc1` here?
The GI50 was inactive: > 89.5 µM.

For `CC(C)[Si](OCC1CC(C#N)OC(C)(C)O1)(C(C)C)C(C)C` (configuration not stated), which GI50 is on record?
Its GI50 is inactive: 23.5 µM.

`Cc1c2cc[n+](C)cc2c(C)c2c1[nH]c1ccc(OC(C)(C)C)cc12` was tested. Which GI50 did it give?
Its GI50 is inactive: > 100 µM.

`CN(C)Cc1cc(/C(=C(\C#N)c2ccccc2)c2ccc(O)cc2)ccc1O` was tested. Which GI50 did it give?
Its GI50 is inactive: 13.3 µM.

`Cc1cnc2sn(-c3ccc([N+](=O)[O-])cc3)c(=O)c2c1` was tested. Which GI50 did it give?
The GI50 was inactive: > 100 µM.

For `Fc1cccc(F)c1C1SCc2nc3ccc(Cl)cc3n21` (configuration not stated), which GI50 is on record?
Its GI50 is inactive: > 100 µM.

With `CCC[S+]([O-])c1nc(COC(=O)NC)c(COC(=O)NC)n1C` (configuration not stated) as the molecule, how does the GI50 read?
Its GI50 is inactive: > 100 µM.

For `O=[N+]([O-])/C=C/c1cc2ccccc2[nH]1`, which GI50 is on record?
Its GI50 is inactive: 17.1 µM.

How did the GI50 turn out when `S=C1Cc2c(-c3ccccc3)cc(-c3ccc(Cl)cc3)nc2-c2ccccc2N1` was run?
The GI50 was inactive: 2.11 µM.

For `Cc1cc2ccc(OC(=O)c3ccc(NC(=N)N)cc3)cc2oc1=O`, which GI50 is on record?
The GI50 was inactive: 94.8 µM.

For `CN(CC(=O)O)c1ncc2c(n1)-c1ccccc1CC2`, which GI50 is on record?
Its GI50 is inactive: > 100 µM.

With `COC(C(=O)NN)c1ccccc1` (configuration not stated) as the molecule, how does the GI50 read?
The GI50 was inactive: > 100 µM.

`Clc1cc2ns[s+]c2cc1Cl` was tested. Which GI50 did it give?
The GI50 was inactive: > 100 µM.

How did the GI50 turn out when `CN(C)C(=S)/N=c1\sn(C)/c(=N\C(=S)N(C)C)n1C` was run?
The GI50 was inactive: > 100 µM.

For `CCN(CC)CCNC(=O)c1cccc2cc3ccccc3nc12`, which GI50 is on record?
Its GI50 is inactive: 6.62 µM.

`Cc1ccc(S(=O)(=O)n2cc(C=O)c(-c3cn(S(=O)(=O)c4ccc(C)cc4)cc3-c3cn(S(=O)(=O)c4ccc(C)cc4)cc3C=O)c2)cc1` was tested. Which GI50 did it give?
The GI50 was inactive: 54.8 µM.

With `Cc1ccccc1/N=C/c1ccc(N(CCC#N)S(=O)(=O)c2ccccc2)cc1` as the molecule, how does the GI50 read?
The GI50 was inactive: > 100 µM.

Which GI50 does the source give for `CSC(=S)N/N=C/c1nccc2ccccc12` here?
Its GI50 is active: 0.682 µM.

How did the GI50 turn out when `C[N+](C)([O-])CCCNc1ccnc2cccc([N+](=O)[O-])c12` was run?
Its GI50 is inactive: 46.6 µM.

With `COc1ccc(O[C@H](CO)C[C@@H]2COC(C)(C)O2)cc1` as the molecule, how does the GI50 read?
Its GI50 is inactive: > 100 µM.

For `NNC(=O)c1ccccc1NC(=O)/C(=C/c1ccccc1)NC(=O)c1ccccc1`, which GI50 is on record?
Its GI50 is inactive: > 100 µM.

With `CCc1ccc(CCN2CCCCC2)nc1` as the molecule, how does the GI50 read?
The GI50 was inactive: > 100 µM.

Which GI50 does the source give for `O=C(O)CC(NC(=O)CP(=O)(O)O)C(=O)O` (configuration not stated) here?
The GI50 was inactive: 6950 µM.

Which GI50 does the source give for `O=C1C2C3C=C4c5ccccc5N(c5ccccc5)C4([C@@H]2C(=O)N1c1ccc(F)cc1)[C@H]1C(=O)N(c2ccc(F)cc2)C(=O)[C@@H]31` (some centres not stated) here?
The GI50 was inactive: > 100 µM.

`COc1ccc2[nH]cc([C@@H]3C4CCC(C4)[C@H]3NCc3cccc(CN[C@H]4C5CCC(C5)[C@@H]4c4c[nH]c5ccc(OC)cc45)c3)c2c1` was tested. Which GI50 did it give?
Its GI50 is inactive: 1.62 µM and inactive: 1.63 µM.

Which GI50 does the source give for `CC1=C/C(=C(/c2ccc(O)c(C)c2)c2ccccc2C(=O)O)C=CC1=O` here?
Its GI50 is inactive: 19.5 µM.

With `CC(CO)C1=CC(C#CCOCc2ccccc2)N(C(=O)Oc2ccccc2)c2ccccc21` (configuration not stated) as the molecule, how does the GI50 read?
The GI50 was inactive: 39.9 µM.

With `C[C@]12C[C@H](c3ccccc3)Nc3ccccc3N1C(c1ccccc1)=NO2` as the molecule, how does the GI50 read?
The GI50 was inactive: > 100 µM.

For `CCN(CCCl)CCNc1c2ccccc2nc2ccc(OC)cc12`, which GI50 is on record?
The GI50 was active: 0.689 µM.

For `CC(=O)SSC1(Cl)C(C)(C)C(Cl)(SSC(C)=O)C1(C)C` (configuration not stated), which GI50 is on record?
Its GI50 is inactive: > 100 µM.

For `Cc1nc2sccn2c1C(=O)N/N=C1\SCC(=O)N1C`, which GI50 is on record?
Its GI50 is inactive: > 100 µM.

`O=C1CCSC2=C1SCc1sccc12` was tested. Which GI50 did it give?
The GI50 was inactive: > 100 µM.

With `Cc1oc2c(cc(O)c3ccccc32)c2cccc1-2` as the molecule, how does the GI50 read?
The GI50 was inactive: 92.5 µM.

How did the GI50 turn out when `C=C1CC[C@H]2C(C)=CC[C@H]3C(=C)C(=O)O[C@@H]3[C@@H]12` [EREMANTHIN] was run?
Its GI50 is inactive: > 100 µM.

`CCOc1nc(OCC)nc(-c2cccn2-c2ccccc2)n1` was tested. Which GI50 did it give?
Its GI50 is inactive: > 100 µM.

Which GI50 does the source give for `Oc1c(Br)cc(CN(Cc2cc(Br)c(O)c(Br)c2)C2CCCCC2)cc1Br` here?
Its GI50 is inactive: > 100 µM.

For `Oc1ccc2ccccc2c1OCc1nnc(CCCCCCCCc2nnc(COc3c(O)ccc4ccccc34)n2Nc2ccccc2)n1Nc1ccccc1`, which GI50 is on record?
The GI50 was inactive: 28.4 µM.

With `CCOC(=O)N[C@H]1CCc2cc(O)c(OC)c(OC)c2-c2ccc(SC)c(=O)cc21` as the molecule, how does the GI50 read?
The GI50 was active: 0.0207 µM.

For `Cc1ccc([N+](=O)[O-])cc1S(=O)(=O)Nc1ccc(C2=NNC(c3cccs3)C2)cc1` (configuration not stated), which GI50 is on record?
The GI50 was inactive: 25 µM.

For `N#Cc1cc2cc3c4c(c2oc1=O)CCCN4CCC3`, which GI50 is on record?
The GI50 was inactive: > 100 µM.

For `Cc1cccc2c(N)c3cccc(C(=O)NCCNCCN)c3nc12`, which GI50 is on record?
The GI50 was inactive: 2.97 µM.

Several values for one entry are separate records, joined by “and”; a condition that tells them apart may be missing. Equal entries are not always repeated.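 Step 1: Grow cells in 96-well plates. Step 2: Expose to compound for 48 hours at 5 concentrations. Step 3: Interpolate endpoints linearly; if unreached, use highest concentration. Here, GI50 denotes the concentration required for 50% inhibition of growth.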 Activity calls are given as the source filed them. No stated cut-off is given here; in the data, active = GI50 up to about 1.1 µM and inactive = higher. Numbered stars: 1 amine (or outer) side, 2 acyl side, 3 side chain; on linkers, the order of the positions; unused ones are H or OH. Square brackets hold non-standard residues; d marks the D form. Peptide text beside a SMILES is read from it. X4 = C[C@H](N[*:1])C(=O)C(C)(C)C(=O)[*:2]; Hmpa(2S,3S) = CC[C@H](C)[C@H](O)C(=O)O; NMeY = CN[C@@H](Cc1ccc(O)cc1)C(=O)O; NMeL = CN[C@@H](CC(C)C)C(=O)O; NMeV = CN[C@H](C(=O)O)C(C)C; βAla = NCCC(=O)O
